# Reference: publication PMC4242493
# The list shows a part of the results. The list includes weakly bound sequences.
# Biological target: MaxL homodimer (UniProt P61244)
# Experiment: universal protein-binding microarray (PBM)
# Conditions: PBS-based mixture, 10 nM His-tagged protein dimer, 2% milk, 200 ng/uL BSA, 50 ng/uL salmon testes DNA, 0.02% TX-100; detection with Alexa 488 anti-His …; high values mean tight binding; most listed sequences are background and not binding sites; double strand, one strand shown
# Chain of UniProt P61244 (P61244 whole entry): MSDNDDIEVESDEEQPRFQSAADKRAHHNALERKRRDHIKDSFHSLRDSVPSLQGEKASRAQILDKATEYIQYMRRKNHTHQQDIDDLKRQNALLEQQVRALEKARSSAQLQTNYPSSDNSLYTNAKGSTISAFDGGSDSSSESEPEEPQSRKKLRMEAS
row,Sequence,binding signal (normalized occupancy)
1,TCAGCGGA,0.0675
2,ACGTGACA,0.108
3,CGAGGGTC,0.0654
4,AATGGTGG,0.0789
5,ATCGAGCG,0.0777
6,GGTACACC,0.0771
7,CGACTGCG,0.0666
8,ACTGCTAT,0.0746
9,ACTGCCGC,0.0714
10,CCGATCCG,0.0711
11,GAGTCGAC,0.0683
12,ATGCGACC,0.079
13,TCCCCCCA,0.0805
14,ACACGGAC,0.0766
15,AGGGGAAT,0.0787
16,CACCCACA,0.0789
17,AACAGCAG,0.0725
18,ATCGTCTC,0.0733
19,AGAGAAAT,0.073
20,AACAACCA,0.0769
21,TAAGGCTA,0.075
22,AAGGCCGT,0.067
23,CTGCACCC,0.0712
24,ATTGCAGC,0.0756
25,AACAAGTA,0.074

row,Sequence,binding signal (normalized occupancy)
1,AATTAGTA,0.0787
2,AGGCCTGA,0.0765
3,ATATGTCA,0.0884
4,ATCTGGAC,0.0745
5,CAAATGAG,0.0793
6,GTTTGCTA,0.0768
7,TCCCCTAA,0.0765
8,GCGTCCAC,0.0736
9,ACTAAACG,0.075
10,GAGACCTA,0.0724
11,AGCTCTAG,0.0679
12,ACCCGAAC,0.0791
13,ATCTTCAG,0.0734
14,CGAAGCGC,0.0652
15,CTCATAAA,0.081
16,CCTCTCGC,0.0693
17,AGGGCGAA,0.0715
18,GACCGAAC,0.0688
19,GGTGTGTA,0.0852
20,AATAGTTC,0.0708
21,CCGCTACA,0.0757
22,GAGCGCTA,0.0668
23,AGAGCGCG,0.0713
24,ATCCCCGA,0.0778
25,GTTCGCCA,0.0711

row,Sequence,binding signal (normalized occupancy)
1,ATAGTTAG,0.0705
2,AGGCCTGG,0.0702
3,CAGACACA,0.0754
4,TGTGCCAA,0.0737
5,CATCGGCA,0.0713
6,AAGGAGGA,0.0699
7,AACATTTC,0.0768
8,ACCTGCAT,0.0797
9,AGTGTCTG,0.0697
10,ACTGCAGT,0.0691
11,GGGCAGAA,0.073
12,AAGTGAAC,0.0781
13,ATCCCCGC,0.0757
14,CATATCAG,0.0835
15,CGGACGGA,0.0673
16,GCTATGAA,0.0758
17,ACCAGTCG,0.073
18,ACTACAGG,0.0769
19,CCTAGCTC,0.0703
20,CGGGCTAA,0.0689
21,CCCACCGG,0.0686
22,ATACCCGC,0.078
23,ACTTGGCG,0.0731
24,CTCAGCGA,0.0718
25,CATTGTGC,0.08

row,Sequence,binding signal (normalized occupancy)
1,ACTAAGCC,0.0709
2,CTCGATTC,0.0725
3,TACGGAAA,0.0756
4,TCGATTCA,0.0762
5,CAGCGTTC,0.0716
6,ATTATTTC,0.0783
7,AATTGATG,0.0797
8,TAAGCCGA,0.067
9,CAGGGCTA,0.0741
10,CGGGTACC,0.0725
11,ACAATCAG,0.0798
12,GAAAGCCA,0.0709
13,CCGACACC,0.0792
14,CCGCGATC,0.0738
15,ACGGAATA,0.0748
16,CTTGCCCC,0.0723
17,GAGGCACC,0.0768
18,ACTCCTAC,0.0716
19,AACTGCTC,0.0708
20,ACACGCTG,0.108
21,AATCGCCG,0.0731
22,CTATACAA,0.0801
23,GACCAATA,0.0777
24,ATTATATA,0.0809
25,ACGCAACG,0.0717

row,Sequence,binding signal (normalized occupancy)
1,TGCTTTAA,0.0772
2,GGCCTGAC,0.0707
3,CGAGTATC,0.0727
4,CTATCGTC,0.0776
5,CGATCAGC,0.0743
6,CAAGCAAA,0.0734
7,AATACGCT,0.0709
8,CGGCCTAG,0.0638
9,CGAGTCAA,0.0786
10,GGTCCGCA,0.0744
11,CCGGGAGA,0.0692
12,AGCGCGTA,0.0709
13,CCGGTAAA,0.0726
14,CGATAAAG,0.0738
15,CCCTGGAC,0.0729
16,ACGCGGTA,0.0786
17,CGGCAAGC,0.0718
18,TGACCCAA,0.0776
19,CTGTTTCC,0.0716
20,ACTAATCG,0.0713
21,GGCTTCTA,0.0748
22,GATATATA,0.0854
23,GTATTGGA,0.078
24,GCTCGTCC,0.0664
25,CCTTTGAC,0.0814

row,Sequence,binding signal (normalized occupancy)
1,AGGGAGGC,0.0693
2,CGGACAAG,0.0778
3,AATCCAAG,0.0718
4,CCTGAAAG,0.0724
5,AATGGCAC,0.078
6,TATGTGAA,0.0871
7,ACAAGGTA,0.0767
8,AACAGTGA,0.0726
9,CAGTTCGA,0.0725
10,ATCAGCTG,0.0721
11,ACCTAGCT,0.0699
12,CGCCAACC,0.0678
13,CACAGGTA,0.0756
14,GACTGGCC,0.0683
15,TCAATACA,0.0786
16,AGCCGCTC,0.066
17,CGCTCGAA,0.0689
18,GATCCGAA,0.072
19,AAGCACCC,0.0753
20,AGAGTTTA,0.0728
21,AACTACCC,0.078
22,CTAATCGA,0.0701
23,AGATCATC,0.0816
24,AACGGCAC,0.0761
25,CGATCTTA,0.0781

row,Sequence,binding signal (normalized occupancy)
1,ACGTAAAA,0.0808
2,CTGGCAAG,0.0667
3,CGTATTAC,0.0764
4,GTGCGGTA,0.0756
5,AAGTACAT,0.0812
6,GAAACAAA,0.0714
7,TAATCCTA,0.0761
8,GGCGGGGA,0.0803
9,GATGTTAA,0.079
10,CGAGGCCA,0.0729
11,CAAAAGAG,0.0755
12,CTTCCCCA,0.0787
13,AAGGTTCG,0.0697
14,AAGTCCGT,0.071
15,AGAGGATC,0.0698
16,ACTCTATG,0.0736
17,ACAGAACT,0.0718
18,GCCGAGTA,0.0689
19,ATGCTACC,0.0827
20,CGTTGCCA,0.0801
21,ACTCCACA,0.0787
22,CAGTTCGG,0.0687
